Laboratory results from the supplement of paper PMC11417369.
The list shows a part of the results.

Test system: PfSIP2 AP2 domain 1 (GST-tagged)
Assay: gcPBM binding intensity (ln(normalized median fluorescence intensity)); higher = stronger DNA binding
Summary of the method: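 Binding intensity is defined as the maximum Masliner-normalised natural-log median intensity across replicate spots for either probe orientation. It was measured on an Agilent 4 × 180k array of primer-extended double-stranded 36-bp intergenic genomic probes and negative controls, to which GST-tagged P. falciparum DNA-binding domains made in E. coli were applied for 1 h in 1× PBS with 1% milk, 0.2 mg/ml BSA, 0.5% salmon testes DNA and 0.03% Triton X-100. Detection was by Alexa488 anti-GST antibody and scanning at 488 nm.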

Row | Sequence | gcPBM binding intensity (ln)
1 | TATTTTTACAATGGTAGTACCATTTTGAATCTTTGT [XGTACX_site6092] | 6.97
2 | CACCCGCACGTATTTGCACACATTGCCACGTAATTA [CACACA_site5786] | 7.76
3 | GTACTCTTCTCCAGACTGCACTATACGACTCGTACA [GTGCAC_site9770] | 8.49
4 | ATATATATATATATATGTACTTATATATAATATAGA [XGTACX_site3488] | 9.15
5 | ATTACATACACGCGCACACACAAAAAAAAAAAAAAA [CACACA_site1334] | 7.88
6 | TGGTATGTTTTACAAAGTACCCATCGATTCTTATGT [XGTACX_site2822] | 6.71
7 | AAAAAGTAGTAAAACAGTACAGTATTTATGCCTATT [XGTACX_site6434] | 6.75
8 | AAAAAAAAAAAAAGTACACACTTTTGCGTACATGTA [CACACA_site7449] | 7.46
9 | AATATATTTTTCTACCGTACATAATAAAATATATAT [XGTACX_site1777] | 7.23
10 | TATTTATTTATTTATTGTACATAAGTATATATTATA [XGTACX_site6566] | 6.98
11 | GAACCACTAAAATGAGCATGCTCATATTTACATATA [TGCATGCA_site1033] | 6.93
12 | AAATAAGAGCGTAGCACACACGCATTTTATAAATGT [CACACA_site741] | 6.81
13 | TATCATTTTATTATTCTACACACTTATCTATAATTA [CACACA_site7894] | 7
14 | TTTTTTTTTTTTTTTGCATGTTGTTTAATGTATTGT [TGCATGCA_site772] | 6.99
15 | TAAAAATGTGGACACACACACATATTTATATTTAAT [CACACA_site6827] | 7.25
16 | TTTTACAAAATAAAAATATAGAATACGGTAAATTAT [GTGCAC_negctrl_site40] | 7.18
17 | TGTTGATGATATTACACACCCAATGAGAAAAGGAAT [CACACA_site2072] | 7.25
18 | ATATTTAAAGAATAAGTGCAAAATGTAATTAATTTT [GTGCAC_site9901] | 7.91
19 | TATATTTTATAAAAAAGTACACATGAAAATGTATTT [XGTACX_site5889] | 7.61
20 | AAAGGGGATATATGAACACACAAAAAAAAAATATAT [CACACA_site2896] | 7.07
21 | TGTAGTCTGGAGAAACGTACACAGTATCTGGTAACA [XGTACX_site4938] | 7.05
22 | TATTTATTACTATGTAAACACACATGCAATATATGT [CACACA_site8288] | 7.05

Row | Sequence | gcPBM binding intensity (ln)
23 | TTTTTTCCTTTTAATTGTACACAGATATAATATATT [XGTACX_site2230] | 7.04
24 | AAATTTTATTATAGCAGTACAATATAATATTATTAA [XGTACX_site1971] | 6.83
25 | AAATATTTTTTTTCTACACACATACAAATATAGATT [CACACA_site7164] | 7.11
26 | ATGCCCCATATAAACACACAAATAAAAAGAATATAC [CACACA_site7292] | 7.35
27 | ATATAATTAAAATGCTCACACACATAAAAAAAAATT [CACACA_site2148] | 6.91
28 | CACATATATATGTGTGCATGTTGTATTATATATTTA [TGCATGCA_site632] | 8.48
29 | ATAATTACAAAATAAACACACATATAGATTTATATG [CACACA_site6343] | 7.15
30 | TACATAATACATATAACACACACAATTATACATAAA [CACACA_site9060] | 7.13
31 | ATTTTATTTTTTAAAGGTACAGTTACAGCTTATATA [XGTACX_site7513] | 7.1
32 | GTACATATATACATTACACACGGTTTGATTTAAAAA [CACACA_site3379] | 7.26
33 | TCTTTTAAAAAAAAAGGAGGAACATAAAAAGTAGAA [XGTACX_negctrl_site272] | 7.26
34 | AACAAACACGGACACACACACACACTAGAATGATTA [CACACA_site5364] | 7.31
35 | AAAAATTTAAGTGGGGGTACATTTTTTTAACACCTT [XGTACX_site1093] | 7.31
36 | ATATTTAAATGTAATACATGCAAATTTGAACATTTT [TGCATGCA_site736] | 7.08
37 | TAATATATTAACATGGGTACATATTATTTCATGTGT [XGTACX_site5985] | 7
38 | AAAAAAAAAAAAATCACACATATGTATTTATATATA [CACACA_site5790] | 6.91
39 | TTTAATTTTTTTAATTCACACATTATTCCATCCTTT [CACACA_site5480] | 6.9
40 | AATAAATAAGCAACATGTACATACAAATATATACAT [XGTACX_site8529] | 7.11
41 | ATTTTCCATTGTGCTACACACAACGGTTCGCAATAA [CACACA_site2974] | 7.1
42 | ATCTAATAAAAATACACACACATATGATTTGTGAAT [CACACA_site1867] | 6.86
43 | TAAAAAAAATAGTCAAGTACATAAGAAGGGAAGAAA [XGTACX_site8733] | 7.02
44 | TTATTCATATTATCATGTACTTATATATATTGTCAT [XGTACX_site2231] | 7.01

Row | Sequence | gcPBM binding intensity (ln)
45 | ACTAAAAGATATATAATTTCTTTCTTATTTATTTTT [CACACA_negctrl_site842] | 6.82
46 | AAAAAAACATGAAACACACACAAATATTTATTTATA [CACACA_site6967] | 6.91
47 | TGTTTCCAAAAAAAAAAAAAAAAAAAAAAAAAAAAA [CACACA_negctrl_site358] | 7.1
48 | TTTTGTTTATTATGATTCAAAATGATTTTATCTTTG [TGCATGCA_negctrl_site425] | 6.71
49 | TATTATATATATAAATGTACTTATTTTAATTCCCCT [XGTACX_site8638] | 7.07
50 | TGTAATATAAAATTTTGTACTCAAAAATTTATATAT [XGTACX_site3252] | 7.12
51 | ACTTATAAAAACATATACCCCATCGCATTTTTTCCA [XGTACX_negctrl_site177] | 6.9
52 | AATTTTTTATATGTCACACATTTATTATTATTATTA [CACACA_site4198] | 6.9
53 | TTTATTAGTAATTATACACACATATAAAATGAATAA [CACACA_site6754] | 7
54 | TATATTTATAGGTACACACACACATATAAATAAATA [CACACA_site6345] | 7.42
55 | ATAAAATTATATTTTGCATGCAGGCCTTTTTCTTAA [TGCATGCA_site1030] | 6.76
56 | AAAAAAAAAAAAAACACACACATATATATATATATA [CACACA_site1891] | 9.44
57 | TTCCAAAAAGTTATTACACACATATGTGCACATATA [CACACA_site6465] | 9.48
58 | TTCCAAACCTCATTATGGAAAATAAAAAAATAAAAA [XGTACX_negctrl_site17] | 6.87
59 | ATAAAATATTTTTGAACATGCAGGTAAAAAATAAAA [TGCATGCA_site1019] | 7.05
60 | AGAATATTATATTATGCATGCATATAGAAAAATATA [TGCATGCA_site302] | 7.1
61 | TGTATAAGTATTAATACACACACAAAATAATAAAAA [CACACA_site9156] | 7.18
62 | TACTTACATTATTTATTTATATAAAAAGTTAATTAT [XGTACX_negctrl_site433] | 7.04
63 | ATAATTAACAAATACACACACACACCCCCACAAAAA [CACACA_site518] | 8.73
64 | AGTATTCATAAAAATACACACATGGAAAAATAAACT [CACACA_site6796] | 7.1
65 | AAATTAAAATATAATACACACATAAAAAAAAAAAAA [CACACA_site4183] | 6.86
66 | TATATATTTTTTTTTTGTACTCACAATATATGTATG [XGTACX_site8024] | 6.99

Row | Sequence | gcPBM binding intensity (ln)
67 | TATGTGTAATATTTTTGTACAGAAAAAAAAAAAAAA [XGTACX_site7075] | 7.14
68 | AAAAAAAAAAAAAACACACACATGCACATCATATTA [CACACA_site4467] | 7.43
69 | TCATTTCACAGACACACACACACAATATATTTCCTT [CACACA_site9295] | 7.17
70 | ATATTTTTATTAGTAGTGCAATTTAGTGTATATATA [GTGCAC_site9542] | 8.39
71 | AAAAAAAAAATTAAAACATGCATAAATAAATATATT [TGCATGCA_site866] | 6.71
72 | AAAAAAAAAAAATATACACACTAATATATTTTTTTA [CACACA_site4604] | 6.97
73 | TATTTAAAAAGAAAAAAAAAAAAAAAAATACATATA [CACACA_negctrl_site164] | 6.59
74 | TATTAAATTTATCGGAGTACATTTAAATGTATATAC [XGTACX_site7975] | 7.13
75 | TATATACGCAAACACACACACACATACACCCACATA [CACACA_site1724] | 7.16
76 | TATTACTATGTTATAACTTTTTTAAACGTGATCATA [TGCATGCA_negctrl_site128] | 6.8
77 | CTATTTATTTTTGATGCATGCCAAATATAGAAAAAA [TGCATGCA_site368] | 7.08
78 | CGTATAAATATACGTGCATGTAACTTTTTCTATATT [TGCATGCA_site981] | 8.32
79 | TAGTAGTTATCACTAACATGCAATAATATTATTTAA [TGCATGCA_site161] | 6.89
80 | TGACTGTAGATATTTTGTACATAACCTAATATATAT [XGTACX_site970] | 7.18
81 | TACAGTTCAATGAAGGTGCAATTAATATATAAAATA | 10.2
82 | ATAATATAATACGAAGGTACACATTTTCTTAATATA [XGTACX_site7947] | 6.78
83 | TTATGTACAATTTCTTCTTTCTTTTTTCCTAAAGAC [CACACA_negctrl_site1193] | 6.92
84 | TTTTTTTTTTTTTTTTGTACACATAATATGAATAAT [XGTACX_site2661] | 7.21
85 | ATAACATATATATATACACACACATATATATATGAA [CACACA_site7983] | 7.22
86 | ATATATTTTTTGAATACACACATATTATAGGTAATA [CACACA_site6709] | 7.03
87 | TTTTTTTTTCTTTTCAAACACACAATTGGTATATAT [CACACA_site3321] | 6.82
88 | TTTTCCTTTTTGGAATGTACACATATATATTAAATG [XGTACX_site4700] | 6.89
